Our source for the binding signal values is PMC7819943, “Rice protein-binding microarrays: a tool to detect cis-acting elements near promoter regions in rice”.

The other results are listed elsewhere or left out.

The assay concerns the target T1, OsWOX13 (Oryza sativa, UniProt Q5QMM3 1-267).
T1 sequence: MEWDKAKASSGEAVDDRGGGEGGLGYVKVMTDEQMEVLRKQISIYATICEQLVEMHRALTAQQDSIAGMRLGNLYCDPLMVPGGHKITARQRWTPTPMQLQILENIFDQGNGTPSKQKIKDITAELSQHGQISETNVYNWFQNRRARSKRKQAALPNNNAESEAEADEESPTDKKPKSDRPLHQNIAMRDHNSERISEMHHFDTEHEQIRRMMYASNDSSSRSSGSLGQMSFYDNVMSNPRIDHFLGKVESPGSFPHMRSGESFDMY
The assay is described as follows: protein-binding microarray (RPBM); PBS, 2% BSA, 51.3 ng/ul salmon testes DNA, 50 uM zinc acetate, 200 nM TF, 25 C, 1 h; high values mean tight binding. The following applies: protein: recombinant; tags: N-terminal polyhistidine and DsRed monomer fusion (pET32a); label: CyDye5-dUTP incorporated in the synthesized complementary strand; 3' TTTTT single-stranded linker to array surface; dsDNA, one strand shown. The procedure, abridged:
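Polyhistidine-tagged DsRed fusions of transcription factors, joined at the N-terminus, were expressed in E. coli BL21-CodonPlus and isolated on Ni–NTA. They were incubated at 200 nM for 1 h at 25 °C on a custom Agilent array, double-stranded and BSA-blocked, in PBS with 2% BSA, salmon testes DNA and 50 µM zinc acetate. The binding signal is per-feature fluorescence intensity (arbitrary units) read on an Axon 4000B scanner after washing.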
Turning to “GTCAAACTTTAACTGAAATCATAGAAAGGAAATCGTCATGCGGAGTCACCTAGTGCAG”, the binding signal was 4890 fluorescence intensity (a.u.).

For the sequence “TCATGAATGATTGTGGTGGATACATTGAAGCATGATCTAACGGAGTCACCTAGTGCAG”, the binding signal was 19100 fluorescence intensity (a.u.).

Take “TGAACTGGGTTCATCTGATGATTGGTGTGACTTGGGAAGACGGAGTCACCTAGTGCAG”: the binding signal was 4820 fluorescence intensity (a.u.).

With “TAATGTGAGTGTTTAAATTTATATTAAAGATACATACACGCGGAGTCACCTAGTGCAG”, the binding signal is 3320 fluorescence intensity (a.u.).

For the sequence “ATTTGTGTAATTTATTGGTAGATATCGTAAAAGCGTGTAACGGAGTCACCTAGTGCAG”, the binding signal is 11600 fluorescence intensity (a.u.).

“GTACTAGTATTATTGATTGATACACTTGTGATGTCATGCCCGGAGTCACCTAGTGCAG”: the binding signal was 30900 fluorescence intensity (a.u.).

With “TTGCATAAACTTTCTAAATTAGACAAATAGTTAAACATGTCGGAGTCACCTAGTGCAG”, the binding signal is 8620 fluorescence intensity (a.u.).

In the case of “GGCAGGGGTAATAATTAGTTTCATATCAAAATTCATCGATCGGAGTCACCTAGTGCAG”, the binding signal was 5740 fluorescence intensity (a.u.).

Regarding “TACGCAATAATTTATATATAAATTATATGTATATACTAATCGGAGTCACCTAGTGCAG”, the binding signal is 23400 fluorescence intensity (a.u.).

As for “TTTAAACTACTACTTAATTAACTATATGCTAATGAGTCGCCGGAGTCACCTAGTGCAG”, the binding signal was 18300 fluorescence intensity (a.u.).

For the sequence “ACAAAATTAGCTTGTAACGTATATACTTGTGTTGTTTGTTCGGAGTCACCTAGTGCAG”, the binding signal is 6670 fluorescence intensity (a.u.).

Turning to “ACTAAATGAGATCACTGATGACACAACACATATGACTCTTCGGAGTCACCTAGTGCAG”, the binding signal was 15500 fluorescence intensity (a.u.).

As to “CCCGATTAACAAATCAACCCATATGCTTCCCACTCTCCATCGGAGTCACCTAGTGCAG”, the binding signal was 21700 fluorescence intensity (a.u.).

Turning to “TCCATCCGGATTGATTGTACTTATATGATTAGTATTTTAGCGGAGTCACCTAGTGCAG”, the binding signal was 46700 fluorescence intensity (a.u.).

Regarding “TTTGGAAATTATATTCAAATATAATTTCCTTCTAAACTCTCGGAGTCACCTAGTGCAG”, the binding signal was 5350 fluorescence intensity (a.u.).

With “CAATACATGAATGATTGCTAATTTGAAGCATATGATTAGACGGAGTCACCTAGTGCAG”, the binding signal was 27500 fluorescence intensity (a.u.).

With “TTGATTGGTAGCTAGCTAGGCTTCCGCGCGCGGCGACCCACGGAGTCACCTAGTGCAG”, the binding signal is 30100 fluorescence intensity (a.u.).

Consider “GGCATATCATTGACAGGAATAAGTGTCTTCCGTTGCTTGACGGAGTCACCTAGTGCAG”, for which the binding signal was 9980 fluorescence intensity (a.u.).

As to “GACTAAATTTTAATCCCTATCACATCGGATATTTGACACTCGGAGTCACCTAGTGCAG”, the binding signal is 7230 fluorescence intensity (a.u.).

Take “TCCGATTATTATTAATAATTAATAATAATATCATTTTCATCGGAGTCACCTAGTGCAG”: the binding signal was 25400 fluorescence intensity (a.u.).

Regarding “TCTACGTTTAATATTTATAATTAGTGTCCAAACATCCGATCGGAGTCACCTAGTGCAG”, the binding signal is 5510 fluorescence intensity (a.u.).

Consider “AGTATAATTGCAATATAATTTTACTATAACTATAATGTAACGGAGTCACCTAGTGCAG”, for which the binding signal is 9150 fluorescence intensity (a.u.).

Take “GTCCATGCTGATTAGAATGGGTGCTCTTCCGCTACTTGTTCGGAGTCACCTAGTGCAG”: the binding signal is 17200 fluorescence intensity (a.u.).

Consider “GTTAATTATTTAGAATAAAGATATCCATAGATACAATATTCGGAGTCACCTAGTGCAG”, for which the binding signal was 9980 fluorescence intensity (a.u.).

For the sequence “GTTGATTTGCATCGGCAAGATCAACAACCCACGGAGAGGTCGGAGTCACCTAGTGCAG”, the binding signal is 18700 fluorescence intensity (a.u.).

As for “AATCAATCAAGAGTCTTCATCAAAGCTCGGATTACTTTGGCGGAGTCACCTAGTGCAG”, the binding signal is 38100 fluorescence intensity (a.u.).

“GTGTTAATTTAATCATAAAACTTAGATGTTTATAACTCAACGGAGTCACCTAGTGCAG”: the binding signal was 18700 fluorescence intensity (a.u.).

For “AATGACGATTAATTGTATATGTGCAACCGTGCAAGCTTTGCGGAGTCACCTAGTGCAG”, the binding signal is 22800 fluorescence intensity (a.u.).

Take “CTTTATTTCACAATCCATGATTACATACCTAACTAATTATCGGAGTCACCTAGTGCAG”: the binding signal is 4630 fluorescence intensity (a.u.).

For “GAGGAGGAGGAGGAGGAGGAGGAGGATGCGGGTGGTGGTGCGGAGTCACCTAGTGCAG”, the binding signal is 3500 fluorescence intensity (a.u.).

Regarding “TTACGCCATGATTTGATAATATGGTGATACAATAAACATTCGGAGTCACCTAGTGCAG”, the binding signal was 4610 fluorescence intensity (a.u.).

In the case of “CCCAAATCAAATCAGAGACAATTTATTATGGAGAAAATTACGGAGTCACCTAGTGCAG”, the binding signal is 7660 fluorescence intensity (a.u.).

On to “CATAAATTGGAAATAGTAGTTCCATAAATGTAACAGTTATCGGAGTCACCTAGTGCAG”, for which the binding signal is 20300 fluorescence intensity (a.u.).

As for “TGAATGATTGCTCTTGTGCTAAGATACTTATTTGCAATCCCGGAGTCACCTAGTGCAG”, the binding signal was 13300 fluorescence intensity (a.u.).

For “AATCAAACTCTGATTAGTATACATATATTCATAGTTAAATCGGAGTCACCTAGTGCAG”, the binding signal was 5890 fluorescence intensity (a.u.).

In the case of “TATCATTGGCGTTTAATTATCTCGGCTGAATTATTTGATACGGAGTCACCTAGTGCAG”, the binding signal was 7180 fluorescence intensity (a.u.).

In the case of “CTCCATTTAGCTATAAATAATTTAATATGAAGAAGGAAAACGGAGTCACCTAGTGCAG”, the binding signal was 3560 fluorescence intensity (a.u.).

Take “GCTAATTTATCCTGCTCACACGTCGTATTGCCAACCCGACCGGAGTCACCTAGTGCAG”: the binding signal was 32700 fluorescence intensity (a.u.).

Regarding “TTTTAATTTCAACTAAACTTCTAATTTTAACGTGAACTAACGGAGTCACCTAGTGCAG”, the binding signal is 9020 fluorescence intensity (a.u.).

In the case of “ATGGACTAATTTGGCTAAAATAATTCGTCAAACTGTGCAACGGAGTCACCTAGTGCAG”, the binding signal was 9400 fluorescence intensity (a.u.).

For “CGGAAGATTGGAATGGAAATCGGAGAGAGCAGGGGCGGTGCGGAGTCACCTAGTGCAG”, the binding signal is 12800 fluorescence intensity (a.u.).

Consider “TATGTAATTATTATTTATTTTATTGTGATTTGATTCATCACGGAGTCACCTAGTGCAG”, for which the binding signal was 31400 fluorescence intensity (a.u.).
